Our source for the T/C values is PubChem BioAssay AID220 (DTP/NCI, 2004).

For this experiment, the system named is CD8F1 mice, subcutaneous mammary adenocarcinoma, T/C%. Put plainly: NCI In Vivo Anticancer Drug Screen. Data for tumor model Mammary Adenocarcinoma CD8F1 (subcutaneous) in CD8F1. Particulars: higher = larger tumour. The method, boiled down: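 Antitumor activity is assessed in transplantable-tumor mice by comparing the treated group with a vehicle-treated control group. Survival or tumor size serves as the measure, reported as T divided by C.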

Setting [1] is: endpoint: median tumor weight (est.), dose: 12.5 mg/kg/injection, schedule: Q07DX005 (ip), vehicle: saline.
The mark [2] stands for this setting: endpoint: median tumor weight (est.), dose: 50.0 mg/kg/injection, schedule: Q07DX005 (ip), vehicle: saline.
Where [3] appears, read: endpoint: median tumor weight change, dose: 125.0 mg/kg/injection, schedule: Q01DX001 (ip), vehicle: saline with Tween-80.

Records with an inconclusive call do not appear. For part of its entries the source gives two or more results. The other results are left out here. An entry can have further records. Values given together differ for a reason that is not stated; dose, time, organism, isomer or construct need not be as stated for each record.

`CC1(C)N=C(N)N=C(N)N1c1ccc(F)c(C(F)(F)F)c1`: the T/C was 55 % of control and 118 % of control under setting [1]; 77 % of control and 106 % of control (endpoint: median tumor weight (est.), dose: 25.0 mg/kg/injection, schedule: Q07DX005 (ip), vehicle: saline); 89 % of control and 116 % of control under setting [2].

Turning to `CN=S(=O)(OCCCCCOS(=O)(=NC)c1ccccc1)c1ccccc1` (stereo not given), the T/C (endpoint: median tumor weight change, dose: 31.25 mg/kg/injection, schedule: Q01DX001 (ip), vehicle: saline with Tween-80) was 86 % of control and 114 % of control; the T/C under setting [3] was 76 % of control, 90 % of control, 122 % of control.

On to `ClCCCN1CCN(CCCl)CC1`, for which, where the note is “endpoint: median tumor weight change, dose: 40.0 mg/kg/injection, schedule: Q01DX001 (ip), vehicle: saline”, the T/C is -43 % of control, -17 % of control, -13 % of control.

As for `O=c1ncccn1[C@@H]1O[C@H](CO)[C@H](O)C1O` (stereo not given in full), the T/C (endpoint: median tumor weight change, dose: 125.0 mg/kg/injection, schedule: Q01DX001 (ip), vehicle: saline) was 77 % of control and 103 % of control; the T/C (endpoint: median tumor weight change, dose: 250.0 mg/kg/injection, schedule: Q01DX001 (ip), vehicle: saline) was 72 % of control and 117 % of control; the T/C (endpoint: median tumor weight change, dose: 500.0 mg/kg/injection, schedule: Q01DX001 (ip), vehicle: saline) is 45 % of control and 120 % of control.

Turning to `CC1CN1P1(N2CC2C)=NP(N2CC2C)(N2CC2C)=NP(N2CC2C)(N2CC2C)=N1` (stereo not given), the T/C was 58 % of control and 84 % of control under setting [1]; 17 % of control and 54 % of control under setting [2].

With `CO[C@@]12[C@@H]3N[C@@H]3CN1C1=C(C(=O)C(NCC3CCCO3)=C(C)C1=O)[C@@H]2COC(N)=O` (stereo not given in full), the T/C runs as follows: (endpoint: median tumor weight change, dose: 12.5 mg/kg/injection, schedule: Q01DX001 (ip), vehicle: distilled water + Tween-80) 28 % of control and 57 % of control; (endpoint: median tumor weight change, dose: 25.0 mg/kg/injection, schedule: Q01DX001 (ip), vehicle: distilled water + Tween-80) -10 % of control and 24 % of control.

In the case of `CCN(CC)CC[n+]1ccc2c(C)c3[nH]c4ccc(O)cc4c3c(C)c2c1`, the T/C (endpoint: median tumor weight change, dose: 15.62 mg/kg/injection, schedule: Q01DX001 (ip), vehicle: suspension in saline) is 28 % of control and 73 % of control; the T/C (endpoint: median tumor weight change, dose: 30.0 mg/kg/injection, schedule: Q01DX001 (ip), vehicle: suspension in saline) is 7 % of control and 71 % of control; the T/C (endpoint: median tumor weight change, dose: 31.25 mg/kg/injection, schedule: Q01DX001 (ip), vehicle: suspension in saline) is recorded as 22 % of control, 41 % of control, 63 % of control; the T/C (endpoint: median tumor weight change, dose: 62.5 mg/kg/injection, schedule: Q01DX001 (ip), vehicle: suspension in saline) was -11 % of control, 13 % of control, 31 % of control.

For the compound `O=C1c2ccccc2C(=O)c2c(NCCNCCO)ccc(NCCNCCO)c21`, the T/C reads like this: (endpoint: median tumor weight (est.), dose: 8.0 mg/kg/injection, schedule: Q07DX005 (ip), vehicle: water) 64 % of control, 89 % of control, 104 % of control; (endpoint: median tumor weight (est.), dose: 16.0 mg/kg/injection, schedule: Q07DX005 (ip), vehicle: water) 51 % of control, 68 % of control, 83 % of control; (endpoint: median tumor weight (est.), dose: 32.0 mg/kg/injection, schedule: Q07DX005 (ip), vehicle: water) 41 % of control, 56 % of control, 80 % of control.

In the case of `CC(=O)N(C)C`, the T/C (endpoint: median tumor weight change, dose: 1800.0 mg/kg/injection, schedule: Q01DX001 (ip), vehicle: saline) was 41 % of control and 69 % of control; the T/C (endpoint: median tumor weight change, dose: 3600.0 mg/kg/injection, schedule: Q01DX001 (ip), vehicle: saline) is 19 % of control and 58 % of control.

For the compound `N=c1c(C(=O)OCc2ccccc2)ncc(CCl)n1O`, under setting [3], the T/C was 75 % of control and 101 % of control.

`COc1ccc2c(c1)CCn1c(C)c(COC(=O)NC(C)C)c(COC(=O)NC(C)C)c1-2`: the T/C is 16 % of control and 77 % of control (endpoint: median tumor weight change, dose: 62.5 mg/kg/injection, schedule: Q01DX001 (ip), vehicle: distilled water + Tween-80); 36 % of control and 70 % of control (endpoint: median tumor weight change, dose: 125.0 mg/kg/injection, schedule: Q01DX001 (ip), vehicle: distilled water + Tween-80).

Turning to `NC(=O)c1csc(C2OC(CO)C(O)C2O)n1` (stereo not given), the T/C (endpoint: median tumor weight change, dose: 250.0 mg/kg/injection, schedule: Q01DX001 (ip), vehicle: water) was 48 % of control and 101 % of control; the T/C (endpoint: median tumor weight change, dose: 1000.0 mg/kg/injection, schedule: Q01DX001 (ip), vehicle: water) is 40 % of control and 89 % of control.

Turning to `COC1=C(N)C(=O)c2nc(-c3nc(C(=O)O)c(C)c(-c4ccc(OC)c(OC)c4O)c3N)ccc2C1=O`, the T/C runs as follows: (endpoint: median tumor weight change, dose: 0.25 mg/kg/injection, schedule: Q01DX001 (ip), vehicle: Klucel (hydroxypropylcellulose) (HPC)) 7 % of control, 16 % of control, 83 % of control; (endpoint: median tumor weight change, dose: 1.0 mg/kg/injection, schedule: Q01DX001 (ip), vehicle: Klucel (hydroxypropylcellulose) (HPC)) -51 % of control, 4 % of control, 8 % of control.

With `CC(=O)O[C@@H]1CO[C@H]2O[C@H]3[C@@H](C(C=O)=C[C@H](O)[C@@H]4C5=C(C(C)C)CC[C@]5(C)CC[C@@]34C)[C@@]2(O)C1=O`, the T/C (endpoint: median tumor weight change, dose: 7.5 mg/kg/injection, schedule: Q01DX001 (ip), vehicle: Klucel (hydroxypropylcellulose) (HPC)) is 69 % of control and 97 % of control.

On to `CNNCc1ccc(C(=O)NC(C)C)cc1`, for which the T/C is 68 % of control and 161 % of control (endpoint: median tumor weight (est.), dose: 1.0 mg/kg/injection, schedule: Q07DX005 (ip), vehicle: saline); 63 % of control and 343 % of control (endpoint: median tumor weight (est.), dose: 2.0 mg/kg/injection, schedule: Q07DX005 (ip), vehicle: saline); 63 % of control and 424 % of control (endpoint: median tumor weight (est.), dose: 4.0 mg/kg/injection, schedule: Q07DX005 (ip), vehicle: saline); 48 % of control and 333 % of control (endpoint: median tumor weight (est.), dose: 8.0 mg/kg/injection, schedule: Q07DX005 (ip), vehicle: saline); 54 % of control and 229 % of control (endpoint: median tumor weight (est.), dose: 32.0 mg/kg/injection, schedule: Q07DX005 (ip), vehicle: saline).

As for `C1CN1c1nc(N2CC2)nc(N2CC2)n1`, where the note is “endpoint: median tumor weight change, dose: 1.25 mg/kg/injection, schedule: Q01DX001 (ip), vehicle: suspension in saline”, the T/C was 14 % of control and 40 % of control.

As for `COC1=C(C)C(=O)C2=C(C1=O)C(CO)N1C(C#N)C3CC4C(C1C2N1CCOC41)N3C` (stereo not given), the T/C is 66 % of control and 100 % of control (endpoint: median tumor weight change, dose: 2.5 mg/kg/injection, schedule: Q01DX001 (ip), vehicle: saline + alcohol); 17 % of control, 69 % of control, 70 % of control (endpoint: median tumor weight change, dose: 5.0 mg/kg/injection, schedule: Q01DX001 (ip), vehicle: saline + alcohol).

As for `OC(CCl)CN1CC[N+]2(CC1)CC[N+]1(CCN(CC(O)CCl)CC1)CC2` (stereo not given), the T/C (endpoint: median tumor weight change, dose: 400.0 mg/kg/injection, schedule: Q01DX001 (ip), vehicle: saline) is 61 % of control and 89 % of control.

On to `Nc1ncnc2nc[nH]c12`, for which the T/C is, setting by setting: (endpoint: median tumor weight (est.), dose: 32.0 mg/kg/injection, schedule: Q07DX005 (ip), vehicle: Klucel (hydroxypropylcellulose) (HPC)) 32 % of control, 84 % of control, 92 % of control; (endpoint: median tumor weight (est.), dose: 128.0 mg/kg/injection, schedule: Q07DX005 (ip), vehicle: Klucel (hydroxypropylcellulose) (HPC)) 43 % of control, 75 % of control, 77 % of control; (endpoint: median tumor weight (est.), dose: 256.0 mg/kg/injection, schedule: Q07DX005 (ip), vehicle: Klucel (hydroxypropylcellulose) (HPC)) 43 % of control, 55 % of control, 86 % of control.

In the case of `COc1cc2cc(c1Cl)N(C)C(=O)C[C@H](OC(=O)[C@H](C)N(C)C(C)=O)[C@]1(C)O[C@H]1[C@H](C)[C@@H]1C[C@@](O)(NC(=O)O1)[C@H](OC)C=C/C=C(\C)C2`, the T/C (endpoint: median tumor weight change, dose: 250.0 micrograms/kg/injection, schedule: Q01DX001 (ip), vehicle: Klucel (hydroxypropylcellulose) (HPC)) is 49 % of control and 82 % of control.

With `O=C(Nc1nncs1)c1cccs1`, the T/C reads like this: (endpoint: median tumor weight change, dose: 250.0 mg/kg/injection, schedule: Q01DX001 (ip), vehicle: saline with Tween-80) 90 % of control and 163 % of control; (endpoint: median tumor weight change, dose: 500.0 mg/kg/injection, schedule: Q01DX001 (ip), vehicle: saline with Tween-80) 30 % of control, 84 % of control, 95 % of control; (endpoint: median tumor weight change, dose: 1000.0 mg/kg/injection, schedule: Q01DX001 (ip), vehicle: saline with Tween-80) 30 % of control, 74 % of control, 83 % of control; (endpoint: median tumor weight change, dose: 2000.0 mg/kg/injection, schedule: Q01DX001 (ip), vehicle: saline with Tween-80) 8 % of control, 34 % of control, 52 % of control.

Take `C/C=C(\C)c1cc(=O)c2c(C)cc3c(c2o1)C(=O)c1c(O)c(C2CC(C)(N(C)C)C(O)C(C)O2)cc(C2CC(N(C)C)C(O)C(C)O2)c1C3=O` (stereo not given): the T/C is 59 % of control and 114 % of control (endpoint: median tumor weight change, dose: 1.25 mg/kg/injection, schedule: Q01DX001 (ip), vehicle: saline); 81 % of control, 115 % of control, 118 % of control (endpoint: median tumor weight change, dose: 2.5 mg/kg/injection, schedule: Q01DX001 (ip), vehicle: saline); 55 % of control, 66 % of control, 89 % of control (endpoint: median tumor weight change, dose: 5.0 mg/kg/injection, schedule: Q01DX001 (ip), vehicle: saline).
